Measurements: the supplement of paper PMC4996465
Where a name gives a salt, the structure may show the parent alone. Viability of KB3-1 and Nalm-6 cells after 48 h of drug alone (CellTiter-Glo), 11 doses over about 4.5 log units. % of DMSO wells, lower = more cell loss; AC50 from the fitted curve, lower = more potent. No active / inactive call. Nalm-6 was screened in two runs. AC50 is listed only for well-fitted inhibitory curves. KB3-1 is a HeLa-derived carcinoma line, Nalm-6 a B-cell precursor leukaemia line.

Experiments:
KB3-1 = experiment: viability (% of DMSO control); higher = more viable cells
Protocol: (§1)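 Eleven-dose screen of the NCATS MIPE 3 library on cells without co-treatment; CellTiter-Glo after 48 h, as % of DMSO wells.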

Nalm-6 [1] = experiment: as above
Protocol: as §1

Nalm-6 [2] = experiment: log AC50 of viability decrease (48 h) (log10 M); higher = less potent
Protocol: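 Eleven-dose screen of the NCATS MIPE 3 library on cells without co-treatment; CellTiter-Glo after 48 h. AC50 from the curve fit; only inhibitory curves of the better fit classes are listed.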

Compound | viability (KB3-1; 0.00078 µM) [%] | viability (KB3-1; 0.00234 µM) [%] | viability (KB3-1; 0.00702 µM) [%] | viability (KB3-1; 0.0211 µM) [%] | viability (KB3-1; 0.0632 µM) [%] | viability (KB3-1; 0.19 µM) [%] | viability (KB3-1; 0.569 µM) [%] | viability (KB3-1; 1.71 µM) [%] | viability (KB3-1; 5.12 µM) [%] | viability (KB3-1; 15.4 µM) [%] | viability (KB3-1; 46.1 µM) [%] | viability (Nalm-6 [1]; run: 1, 0.00078 µM) [%] | viability (Nalm-6 [1]; run: 1, 0.00234 µM) [%] | viability (Nalm-6 [1]; run: 1, 0.00702 µM) [%] | viability (Nalm-6 [1]; run: 1, 0.0211 µM) [%] | viability (Nalm-6 [1]; run: 1, 0.0632 µM) [%] | viability (Nalm-6 [1]; run: 1, 0.19 µM) [%] | viability (Nalm-6 [1]; run: 1, 0.569 µM) [%] | viability (Nalm-6 [1]; run: 1, 1.71 µM) [%] | viability (Nalm-6 [1]; run: 1, 5.12 µM) [%] | viability (Nalm-6 [1]; run: 1, 15.4 µM) [%] | viability (Nalm-6 [1]; run: 1, 46.1 µM) [%] | viability (Nalm-6 [1]; run: 2, 0.00078 µM) [%] | viability (Nalm-6 [1]; run: 2, 0.00234 µM) [%] | viability (Nalm-6 [1]; run: 2, 0.00702 µM) [%] | viability (Nalm-6 [1]; run: 2, 0.0211 µM) [%] | viability (Nalm-6 [1]; run: 2, 0.0632 µM) [%] | viability (Nalm-6 [1]; run: 2, 0.19 µM) [%] | viability (Nalm-6 [1]; run: 2, 0.569 µM) [%] | viability (Nalm-6 [1]; run: 2, 1.71 µM) [%] | viability (Nalm-6 [1]; run: 2, 5.12 µM) [%] | viability (Nalm-6 [1]; run: 2, 15.4 µM) [%] | viability (Nalm-6 [1]; run: 2, 46.1 µM) [%] | log AC50 of viability decrease (Nalm-6 [2]; run: 1) | log AC50 of viability decrease (Nalm-6 [2]; run: 2)
CCCCN1CCC(CNC(=O)c2c3n(c4ccccc24)CCCO3)CC1 [Piboserod hydrochloride] | 96.6 | 106 | 99.9 | 97.6 | 99.2 | 94 | 90.2 | 96.8 | 105 | 97.4 | 103 | 98.4 | 110 | 103 | 101 | 80.6 | 62.9 | 38.4 | 5.67 | 1.93 | -0.107 | -0.57 | 95.4 | 107 | 110 | 111 | 103 | 100 | 102 | 109 | 105 | 103 | 86.8 | -6.53 | –
CS(=O)(=O)c1cccc(CNc2nc(Nc3ccc4c(c3)CCC(=O)N4)ncc2C(F)(F)F)c1 | 97.7 | 108 | 97.1 | 101 | 103 | 95.9 | 93.8 | 93.7 | 83.3 | 72.8 | 114 | 100 | 92.9 | 96.7 | 104 | 114 | 116 | 99 | 63.6 | 44 | 33.1 | 122 | 112 | 113 | 119 | 116 | 114 | 111 | 108 | 80.7 | 73.2 | 44.8 | 109 | -5.83 | -5.33
O=C(c1ccc(Nc2nccc(-c3cc4ccccc4s3)n2)cc1)N1CCC(N2CCCC2)CC1 [IKK16] | 97.5 | 95 | 82.4 | 43.7 | 32.9 | 26.7 | 20.5 | 84.5 | 20.3 | 46 | -1.02 | 41.9 | 88.1 | 87.2 | 91.1 | 88.1 | 81.9 | 86.7 | 74.9 | 56.8 | 43 | -0.433 | 94.5 | 101 | 94.4 | 103 | 97.1 | 96.7 | 97.1 | 89.6 | 68.2 | 44.8 | 0.125 | – | -4.78
Cc1cccc(Nc2nc(N[C@@H]3CCCC[C@@H]3N)ncc2C(N)=O)c1 | 106 | 101 | 101 | 105 | 104 | 104 | 103 | 95.6 | 96.9 | 92.3 | 2.93 | 125 | 120 | 116 | 115 | 107 | 97.4 | 81.2 | 78 | 67.1 | 56.5 | 0.803 | 108 | 106 | 108 | 111 | 101 | 93.7 | 77.4 | 74.4 | 71.2 | 64.8 | 0.83 | -4.83 | -4.73
CN1CCN(c2cc(C(=O)Nc3ccc4c(c3)-c3c(c(C(N)=O)nn3-c3ccc(F)cc3)CC4)c(Cl)cn2)CC1 [PHA-408] | 101 | 101 | 99.9 | 100 | 95.4 | 101 | 101 | 95.7 | 96.4 | 90.5 | 3.29 | 109 | 127 | 119 | 118 | 112 | 124 | 118 | 106 | 110 | 109 | 0.792 | 112 | 110 | 111 | 110 | 114 | 113 | 110 | 109 | 105 | 100 | 0.17 | – | -4.58
CC1(C)CNc2cc(NC(=O)c3cccnc3NCc3ccncc3)ccc21 [Motesanib] | 104 | 105 | 100 | 103 | 110 | 106 | 104 | 108 | 106 | 99.9 | 70 | 108 | 98.9 | 103 | 112 | 107 | 109 | 105 | 113 | 107 | 93.1 | 47.1 | 102 | 94.7 | 96.4 | 95.2 | 105 | 101 | 100 | 97.2 | 101 | 90.3 | 45.4 | -4.68 | –
CN(C)CCN(C)CCc1ccc(Cl)c(Cl)c1 [BD-1047] | 107 | 109 | 107 | 106 | 106 | 107 | 108 | 103 | 106 | 99.4 | 89.8 | 111 | 127 | 117 | 111 | 119 | 117 | 118 | 106 | 95.7 | 95.3 | 70.2 | 113 | 115 | 110 | 105 | 108 | 116 | 112 | 104 | 102 | 96.1 | 74.5 | -4.78 | -4.73
Cc1nn(Cc2ccccc2Cl)c(C)c1CN(C)CC(O)COc1ccc(Cl)cc1 (centres undefined) | 88 | 98.1 | 94.2 | 93.3 | 95.2 | 87.5 | 95.8 | 95.3 | 92.4 | 94.7 | 15.4 | 102 | 100 | 102 | 108 | 103 | 107 | 111 | 110 | 92.6 | 92.4 | 0.212 | 105 | 104 | 106 | 106 | 100 | 103 | 110 | 108 | 101 | 91.9 | 0.22 | -4.58 | -4.58
C[C@]1(c2nc3c(C(N)=O)cccc3[nH]2)CCCN1 [Veliparib] | 104 | 108 | 106 | 108 | 110 | 110 | 112 | 113 | 100 | 106 | 72.7 | 108 | 114 | 94.9 | 106 | 111 | 117 | 109 | 115 | 109 | 92.6 | 69.4 | 103 | 105 | 101 | 96.2 | 103 | 102 | 104 | 96.4 | 101 | 95.3 | 68.2 | -4.78 | –
N#CC[C@H](C1CCCC1)n1cc(-c2ncnc3[nH]ccc23)cn1 [Ruxolitinib] | 105 | 106 | 101 | 101 | 94.6 | 99.4 | 98.2 | 97.8 | 91.4 | 89.7 | 19.3 | 119 | 116 | 112 | 119 | 113 | 121 | 120 | 114 | 110 | 100 | 36.2 | 102 | 105 | 111 | 106 | 113 | 111 | 108 | 101 | 107 | 90.2 | 25.5 | -4.63 | -4.63
CC[C@H](NC1=C2N=C[NH]C2=NC=N1)C/3=N/C4=C(C(=CC=C4)F)C(=O)N3C5=CC=CC=C5 [CAL-101] | 105 | 102 | 104 | 106 | 110 | 108 | 108 | 102 | 98 | 97.6 | 84.8 | 116 | 105 | 118 | 118 | 115 | 114 | 104 | 94.8 | 92.2 | 78.1 | 51.4 | 102 | 107 | 105 | 103 | 108 | 101 | 103 | 96.7 | 95.1 | 89.8 | 61 | -4.83 | -4.68
O=C(O)C(=O)c1cn(Cc2ccccc2)c2ccc(-c3ccc(OC(F)(F)F)cc3)cc12 [Tiplasinin] | 94.9 | 100 | 93.7 | 96.2 | 92.4 | 94.1 | 93.7 | 97.1 | 96.4 | 86.2 | 61.4 | 110 | 112 | 107 | 110 | 126 | 117 | 113 | 111 | 111 | 94.2 | 22.8 | 107 | 115 | 113 | 110 | 116 | 106 | 108 | 104 | 107 | 96.6 | 28.1 | -4.68 | -4.63
COc1cc2c(Oc3ccc4[nH]c(C)cc4c3F)ncnc2cc1OCCCN1CCCC1 [Cediranib] | 96.7 | 96.7 | 101 | 97.9 | 99 | 96.7 | 96.5 | 95.7 | 96.2 | 94.7 | 1.86 | 101 | 95.4 | 95.4 | 101 | 96.6 | 91.8 | 100 | 85 | 69 | 20.6 | 0.283 | 107 | 106 | 113 | 113 | 109 | 104 | 107 | 93.7 | 82.5 | 33.9 | 1.42 | -5.03 | -4.88
COc1cc2nccc(Oc3ccc(NC(=O)NC4CC4)c(Cl)c3)c2cc1C(N)=O [Lenvatinib] | 106 | 105 | 98.1 | 103 | 104 | 101 | 101 | 98.7 | 101 | 96.4 | 59.3 | 118 | 114 | 110 | 115 | 118 | 112 | 113 | 106 | 96.3 | 93.4 | 43.6 | 107 | 104 | 107 | 102 | 106 | 103 | 98.3 | 106 | 96.7 | 99.7 | 46.2 | -4.68 | –
